These results are taken from a collection of fitness landscapes (doi:10.1126/science.1257360).

B1: PhoQ; a variant is named by its letters at X, in order, P23837 (parent)
chain: MKKLLRLFFPLSLRVRFLLATAAVVLVLSLAYGMVALIGYSVSFDKTTFRLLRGESNLFYTLAKWENNKLHVELPENIDKQSPTMTLIYDENGQLLWAQRDVPWLMKMIQPDWLKSNGFHEIEADVNDTSLLLSGDHSIQQQLQEVREDDDDAEMTHSVAVNVYPATSRMPKLTIVVVDTIPVELKSSYMVWSWFIYVLSANLLLVIPLLWVAAWWSLRPIEALAKEVRELEEHNRELLNPATTRELTSLVRNLNRLLKSERERYDKYRTTLTDLTHSLKTPLXXLQXXLRSLRSEKMSVSDAEPVMLEQISRISQQIGYYLHRASMRGGTLLSRELHPVAPLLDNLTSALNKVYQRKGVNISLDISPEISFVGEQNDFVEVMGNVLDNACKYCLEFVEISARQTDEHLYIVVEDDGPGIPLSKREVIFDRGQRVDTLRPGQGVGLAVAREITEQYEGKIVAGESMLGGARMEVIFGRQHSAPKDE

The list shows a part of the results. Where only a bound is given, the exact number is not on record here.

In this assay the parent is B1. As to the kind of experiment: enrichment ratio after two sorts for PhoP signalling (ratio (wild type AVST 3.29)); higher = more functional. The settings on record: with PhoP (E. coli).
As for MTLG, the enrichment ratio came out at 4.49. In the case of WHPR it was not above 0.25; in that of VLNY, not above 0.25.

For the variant QHKL, the enrichment ratio is not above 0.25.

As for MVTR, the enrichment ratio is not above 0.25. Next, VPVN: not above 0.25. Regarding KGKR, the enrichment ratio was not above 0.25. Regarding HGIQ, the enrichment ratio is not above 0.25.

With RPMI, the enrichment ratio is not above 0.25. In the case of KEQE it was not above 0.25; in that of TEWN, 9.81; in that of ECPR, not above 0.25.

With ARVF, the enrichment ratio came out at 0.299. In the case of VMVV it was not above 0.25; in that of IEDF, not above 0.25; in that of EFDI, not above 0.25.

As to WEHF, the enrichment ratio is not above 0.25. Next, RMSM: not above 0.25. In the case of SNPY it was not above 0.25.

In the case of WTKM, the enrichment ratio was not above 0.25. Next, IKKI: not above 0.25; MMCP: not above 0.25. Next, AYAY: not above 0.25; HYTC: not above 0.25. In the case of HPHR it was not above 0.25; in that of QSWV, 22.9; in that of DGHN, not above 0.25. Regarding SGHD, the enrichment ratio is not above 0.25. In the case of DGCH it was not above 0.25; in that of QANP, not above 0.25; in that of IHQI, not above 0.25. Turning to EDDG, the enrichment ratio was not above 0.25.

As for QIKT, the enrichment ratio is not above 0.25.

GEWR: the enrichment ratio was not above 0.25. In the case of RHPY it was not above 0.25; in that of DKLC, not above 0.25.

With DPRN, the enrichment ratio is not above 0.25. On to VQCT, for which the enrichment ratio was not above 0.25. As for QKRT, the enrichment ratio was not above 0.25.

For FHCV, the enrichment ratio was not above 0.25.

In the case of MMSV, the enrichment ratio was 5.06. With GKMF, the enrichment ratio is not above 0.25. Next, RSKI: not above 0.25; YEHP: not above 0.25; DTMA: not above 0.25.

Regarding SMHG, the enrichment ratio was not above 0.25. Next, GPCR: not above 0.25; HKQK: not above 0.25; IVPE: not above 0.25. Next, NELT: not above 0.25; VEQR: not above 0.25.

With GCMK, the enrichment ratio was not above 0.25.

As to STPP, the enrichment ratio is not above 0.25.

In the case of EMYH, the enrichment ratio is not above 0.25. As for VSFS, the enrichment ratio is not above 0.25.

As for LTCI, the enrichment ratio is not above 0.25.

For YIWS, the enrichment ratio is not above 0.25. For the variant FMFL, the enrichment ratio was not above 0.25. Consider LCTM, for which the enrichment ratio was not above 0.25. Next, GFMC: not above 0.25; EGPG: not above 0.25; KIYP: not above 0.25. Next, WCKG: not above 0.25; YHQE: not above 0.25; EYWW: not above 0.25.

For YNTF, the enrichment ratio is not above 0.25. Next, KCSP: 0.504.

For NKKD, the enrichment ratio is not above 0.25. Next, IGTL: not above 0.25; HKNI: not above 0.25. As for EFQR, the enrichment ratio was not above 0.25. Next, LRAE: not above 0.25; RHYP: not above 0.25; DIRD: not above 0.25.

On to EAAI, for which the enrichment ratio was not above 0.25. As to NDIY, the enrichment ratio amounted to 2.6. Next, LAYP: 0.263; HYQY: not above 0.25.

As for ANQD, the enrichment ratio was not above 0.25.

WVCF: the enrichment ratio was not above 0.25. In the case of IMYY it was not above 0.25.

Turning to KKFS, the enrichment ratio is not above 0.25. As to QRFF, the enrichment ratio is not above 0.25. In the case of IQRH it was not above 0.25. Next, RQLP: not above 0.25.

Regarding DTEY, the enrichment ratio was not above 0.25. Next, MVLT: not above 0.25; FTAD: 0.886.

For the variant TTCH, the enrichment ratio amounted to 15. Next, ELED: not above 0.25. Next, FDTE: not above 0.25; NGIH: not above 0.25; RWVF: not above 0.25.

As to KQPA, the enrichment ratio is not above 0.25. Next, WDIQ: not above 0.25; RCRV: not above 0.25; YCRT: not above 0.25.

As to SDQR, the enrichment ratio was not above 0.25.

With KTPC, the enrichment ratio is not above 0.25. Regarding IHHL, the enrichment ratio was not above 0.25. Next, MNVK: not above 0.25; RIFR: not above 0.25. Next, HWGP: not above 0.25; GCYI: not above 0.25.

In the case of GNYF, the enrichment ratio was not above 0.25. With AFPD, the enrichment ratio is not above 0.25.

Take IDLC: the enrichment ratio is not above 0.25. In the case of KMCI, the enrichment ratio was not above 0.25. In the case of DDPH it was not above 0.25; in that of NYYQ, not above 0.25. In the case of MFKC it was not above 0.25; in that of EIVK, not above 0.25. Next, WSWQ: not above 0.25. With LWHE, the enrichment ratio is not above 0.25.

IHLS: the enrichment ratio was not above 0.25. Next, AWVK: not above 0.25. In the case of SCVN it was 11.1; in that of WSCY, not above 0.25. In the case of NHVA it was not above 0.25; in that of NKQD, not above 0.25.

Consider PVWH, for which the enrichment ratio is not above 0.25.

With MRIT, the enrichment ratio is not above 0.25. In the case of WDIY it was not above 0.25; in that of NAYK, not above 0.25.

Take TKSH: the enrichment ratio came out at 0.457. Next, FVPE: not above 0.25. Next, GGRQ: not above 0.25. Next, KNLN: not above 0.25; DGDR: not above 0.25. As for FVLG, the enrichment ratio worked out at 4.02. In the case of LFSY it was not above 0.25. In the case of ARFS it was not above 0.25. For the variant YHYI, the enrichment ratio is not above 0.25. Consider ATTY, for which the enrichment ratio came to 5.36. In the case of EEAQ it was not above 0.25; in that of FSYT, not above 0.25.

As for EMCG, the enrichment ratio is not above 0.25. Next, SVWV: not above 0.25; TYPV: not above 0.25; LEKE: not above 0.25. In the case of PKAQ it was not above 0.25. In the case of VYMC it was 0.507; in that of DYSH, not above 0.25. With TAYH, the enrichment ratio was found to be 4.35. In the case of VDGM it was not above 0.25; in that of LEII, not above 0.25. For RDDM, the enrichment ratio was not above 0.25.

For the variant IDWC, the enrichment ratio was not above 0.25.

For the variant LWKA, the enrichment ratio is not above 0.25. In the case of IQGI it was not above 0.25. Next, HYLW: not above 0.25. In the case of SRFI it was not above 0.25. Consider KMLC, for which the enrichment ratio was not above 0.25.
